# According to PubChem BioAssay AID1347165 (National Center for Advancing Translational Sciences (NCATS), 2019):
# The whole screen tested about 220,000 compounds, of which about 5,700 (2.6%) were called active. The inconclusive results got no clear call from the source; some entries with a clear call stand among them for comparison. Calls follow the shape of the dose curve; as a rule, active = well fitted inhibition curve with a large enough effect; inconclusive = small, poorly fitted or top-dose-only effect; inactive = no such curve, though single readings can be large or run the other way. Potencies of inconclusive entries are doubtful fits and often do not repeat.
# Target: Lysine-specific demethylase 5B (Homo sapiens) (UniProt Q9UGL1)
# UniProt Q9UGL1, sequence (Q9UGL1 whole entry, looked up): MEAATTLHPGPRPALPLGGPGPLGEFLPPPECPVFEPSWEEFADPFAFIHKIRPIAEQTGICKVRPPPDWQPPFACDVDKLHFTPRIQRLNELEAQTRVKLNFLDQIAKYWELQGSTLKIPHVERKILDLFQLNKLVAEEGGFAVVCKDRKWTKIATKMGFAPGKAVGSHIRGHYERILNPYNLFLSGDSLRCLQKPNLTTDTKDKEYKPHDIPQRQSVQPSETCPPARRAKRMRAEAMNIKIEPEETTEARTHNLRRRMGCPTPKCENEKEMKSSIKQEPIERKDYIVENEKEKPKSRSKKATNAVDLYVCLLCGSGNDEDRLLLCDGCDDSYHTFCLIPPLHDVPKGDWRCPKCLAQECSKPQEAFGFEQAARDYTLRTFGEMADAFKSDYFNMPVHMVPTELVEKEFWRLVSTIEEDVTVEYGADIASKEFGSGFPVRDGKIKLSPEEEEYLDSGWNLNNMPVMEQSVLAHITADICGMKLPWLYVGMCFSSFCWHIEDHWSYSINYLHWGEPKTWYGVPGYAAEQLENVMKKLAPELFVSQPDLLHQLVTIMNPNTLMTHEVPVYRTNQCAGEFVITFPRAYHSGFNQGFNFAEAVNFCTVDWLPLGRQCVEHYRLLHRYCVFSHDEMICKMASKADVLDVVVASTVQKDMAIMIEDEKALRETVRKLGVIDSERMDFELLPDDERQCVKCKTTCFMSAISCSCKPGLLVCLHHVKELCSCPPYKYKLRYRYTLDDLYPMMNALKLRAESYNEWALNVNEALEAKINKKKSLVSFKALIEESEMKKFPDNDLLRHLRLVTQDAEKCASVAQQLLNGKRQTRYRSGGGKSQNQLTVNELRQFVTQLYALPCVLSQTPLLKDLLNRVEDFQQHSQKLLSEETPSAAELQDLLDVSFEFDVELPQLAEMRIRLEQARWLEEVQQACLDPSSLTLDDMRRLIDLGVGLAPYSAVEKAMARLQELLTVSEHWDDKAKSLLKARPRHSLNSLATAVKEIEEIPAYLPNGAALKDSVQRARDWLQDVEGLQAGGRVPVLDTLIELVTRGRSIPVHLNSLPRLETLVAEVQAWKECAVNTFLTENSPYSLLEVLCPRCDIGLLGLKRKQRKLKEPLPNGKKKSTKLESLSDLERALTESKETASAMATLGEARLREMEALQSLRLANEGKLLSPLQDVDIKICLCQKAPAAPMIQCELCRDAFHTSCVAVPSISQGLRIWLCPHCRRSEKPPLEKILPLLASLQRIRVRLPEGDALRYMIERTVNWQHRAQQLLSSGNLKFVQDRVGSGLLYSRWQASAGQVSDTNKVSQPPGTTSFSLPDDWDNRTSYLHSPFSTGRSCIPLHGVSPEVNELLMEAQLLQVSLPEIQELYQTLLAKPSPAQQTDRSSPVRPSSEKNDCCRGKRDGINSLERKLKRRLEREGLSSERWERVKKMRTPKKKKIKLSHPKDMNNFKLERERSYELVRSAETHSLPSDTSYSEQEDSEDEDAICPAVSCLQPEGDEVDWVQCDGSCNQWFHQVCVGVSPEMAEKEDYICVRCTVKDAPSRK
# Experiment: Primary screen for KDM5B Histone Demethylases FDH-coupled qHTS; also: nearly all actives have a fitted effect of over 70% in size; as to activity change, negative = inhibition: 0% is about no effect
# Details: FDH-coupled NADH fluorescence (FDH is formaldehyde dehydrogenase); activity change, negative = inhibition: at 57.7 µM (top of the series) unless noted
# Outline: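 Here, H3K4me3 peptide (12.5 µM in substrate mix) is demethylated by KDM5BΔAP, 200 nM final, after 10 min compound exposure. Formaldehyde product is coupled through FDH (0.25 U/mL in mix) to NADH fluorescence; 30-min ΔRFU feeds dose-response curves.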
# Potency is read from the fitted curve at half-maximal effect; tags tell the direction and shape of the fitted curve.
SMILES,"activity change, negative = inhibition",Potency
Cc1ccccc1OCCOC(=O)CCC(=O)c1ccc(F)cc1,inactive: 10.2%,–
Cc1ccc(C)n1-c1c(C(=O)NCCN2CCOCC2)sc2ncccc12,inactive: -13.7%,–
COc1ccccc1C(=O)NCCn1cc(SCc2ccccc2Cl)c2ccccc21,–,"inconclusive: 22.4 µM [inhibitor, partial curve, poor fit]"
CC(Sc1nnc2c(Cl)cc(C(F)(F)F)cn12)c1ccccc1 (centres undefined),inactive: -27.5%,–
CCOCCCC(=O)N(C)Cc1cccc(OC)c1,inactive: 18.5%,–
C#CCNC(=O)c1cc(-c2cccc(C(F)(F)F)c2)c2nncn2n1,–,"inconclusive: 50.1 µM [inhibitor, partial curve, poor fit]"
O=C(c1cccc(-n2cnnc2)c1)N(Cc1ccc2[nH]ccc2c1)C1CC1,inactive: -40.1%,–
COc1ccc(-c2nc(-c3ccccc3)c(-c3ccc(O)cc3)[nH]2)cc1,–,"inconclusive: 31.6 µM [inhibitor, partial curve, poor fit]"
CCCCCN1CCN(c2nc3c(c(=O)[nH]c(=O)n3C)n2Cc2ccc(Cl)c(Cl)c2)CC1,inactive: -10.8%,–
O=C(NC1CCCN(c2cc(-c3ccccc3)[nH]n2)C1)c1ccc2cc[nH]c2c1 (centres undefined),–,"inconclusive: 15.8 µM [inhibitor, partial curve, poor fit]"
CC1=C(C(=O)Nc2ccccc2C)C(c2ccc(C(F)(F)F)cc2)n2ncnc2N1 (centres undefined),inactive: 12.2%,–
Cc1ccc(F)cc1-c1nccc2c(=O)cc(N(C)C)oc12,–,active: 39.8 µM
COc1cc(NC(=O)O[C@@H]2CC[C@]3(C)C(CC[C@@H](O)[C@H]3CC(=O)N3CCCCC3)[C@]2(C)CO)cc(OC)c1OC (some centres undefined),–,"inconclusive: 8.91 µM [inhibitor, partial curve]"
O=C(Nc1ccc(F)c(Cl)c1)c1cc(S(=O)(=O)N2CCCc3ccccc32)ccc1F,inconclusive: -34.1% [inhibitor],–
Cn1nccc1C(=O)N1CC[C@H]2C(=O)NCCCCCCN(Cc3ccncc3)[C@@H]2C1,–,"inconclusive: 20 µM [inhibitor, partial curve, poor fit]"
COc1ccc(-n2c(=O)c3c(n2Cc2ccccc2)CN(CCCc2ccccc2)CC3)cc1,inactive: -12.9%,–
Cc1cnc(C(=O)N2CCC(N3C[C@H](O)C[C@H]3C(=O)NC3CCCCC3)CC2)cn1,–,"inconclusive: 22.4 µM [inhibitor, partial curve, poor fit]"
CCCCn1c(N2CCN(Cc3c(F)cccc3Cl)CC2)nc2c1c(=O)[nH]c(=O)n2C,inactive: 17.5%,–
CC(/C=N/NC(=O)c1ccccn1)=C\c1ccco1,–,"inconclusive: 25.1 µM [inhibitor, partial curve, poor fit]"
CCSc1nc2c(c(=O)[nH]c(=O)n2C)n1CCC(C)C,inactive: -17.2%,–
O=C(C1CCC1)N1CCC2(CC1)NCCc1c2[nH]c2ccccc12,inactive: -6.43%,–
COc1ccc(CNC(=O)c2ccc3c(c2)nc2n3CCCCC2)c(OC)c1,–,"inconclusive: 15.8 µM [inhibitor, partial curve, poor fit]"

SMILES,"activity change, negative = inhibition",Potency
Cc1noc(C)c1-c1cc2cc(CN(C)C)oc2c(N2CCOCC2)n1,–,"inconclusive: 44.7 µM [inhibitor, partial curve, poor fit]"
C=CCn1cc2c3c(cccc31)[C@H](CC(C)C)N[C@H](C(=O)N1CCN(CCOC)CC1)C2,–,"inconclusive: 28.2 µM [inhibitor, partial curve, poor fit]"
O=C(NC1CC1)c1cnn2ncccc12,–,active: 31.6 µM
CCCN(Cc1ccc(OCC)cc1)Cc1cc(=O)n2ccc(C)cc2n1,–,"inconclusive: 28.2 µM [inhibitor, partial curve, poor fit]"
COc1ccc(CCNC(=O)c2c(C)noc2-c2ccccc2OC)cc1,inactive: -25.2%,–
CCCCN(C)C(=O)CCC(=O)Nc1ccc2nc(N3CCN(C)CC3)cc(C)c2c1,–,"inconclusive: 28.2 µM [inhibitor, partial curve, poor fit]"
CCn1nccc1C(=O)N1CCC(Oc2ccccc2)C1 (centres undefined),inactive: -11.9%,–
O=c1ncn(CC2CC2)c2ccc(-c3ccoc3)nc12,–,active: 31.6 µM
CCc1ccccc1NC(=O)C1c2ccccc2C(=O)N(CCOC)C12CCCCC2 (centres undefined),inactive: -11.3%,–
COc1ccc(NC(=O)COCc2cc(-c3cccs3)on2)cc1,–,"inconclusive: 14.1 µM [inhibitor, partial curve, poor fit]"
CCn1cc(CN2CCn3c(nnc3[C@@H]3C[C@@H](O)CN3Cc3cccnc3)C2)c(C)n1,–,"inconclusive: 10 µM [inhibitor, partial curve]"
Cc1cc(OC(C)C(=O)NCc2ccncc2)c2c(C)c(C)c(=O)oc2c1 (centres undefined),–,"inconclusive: 4.47 µM [inhibitor, full curve, poor fit]"
COc1ccc(-n2nc3c(N4CCCC(C(=O)NCCc5ccc(C)cc5)C4)nnc(C)c3c2C)cc1 (centres undefined),–,"inconclusive: 11.2 µM [inhibitor, partial curve, poor fit]"
N#Cc1ccc(/C=N/Nc2ccc(S(N)(=O)=O)cc2[N+](=O)[O-])cc1,inactive: 16.9%,–
CN1CCN(C(=O)CCN2C(=O)/C(=C\c3ccccc3F)SC2=S)CC1,–,"inconclusive: 25.1 µM [inhibitor, single point]"
O=C(c1cnc(N2CCCCC2)c2ccccc12)N1CCN(c2ccccn2)CC1,inactive: -0.794%,–
Cc1cccc(C(=O)N2CCC(n3cnnc3-c3ccccc3)CC2)c1,inactive: -20.7%,–
Cc1ccc(NC(=O)Nc2c[nH]c(=O)[nH]c2=O)cc1C,–,"inconclusive: 22.4 µM [inhibitor, partial curve, poor fit]"
O=C(NCC1(c2ccccc2)CC1)c1nn(-c2ccccc2)c(=O)c2ccccc12,–,"inconclusive: 39.8 µM [inhibitor, single point]"
Cc1ccc(OCC(=O)NC2CCN(c3cc(-c4ccccc4)[nH]n3)CC2)cc1,–,"inconclusive: 31.6 µM [inhibitor, partial curve, poor fit]"
CC1Oc2ccc(NC(=O)CC(C)(C)C)cc2CN(CCc2ccccc2)C1=O (centres undefined),–,"inconclusive: 31.6 µM [inhibitor, single point]"
COc1cc2ccccc2cc1C(=O)Nc1ccc2oc(-c3cccc(Cl)c3Cl)nc2c1,–,"inconclusive: 2.82 µM [inhibitor, full curve, poor fit]"
